Laboratory results from the supplement of paper PMC10126150.
Sequences with one replicate were seen in a single cluster, so their values are uncertain.

Tested on: ATP
Assay: switch fluorescence ratio, 500 uM ATP over buffer (Cy3 cluster intensity, sum of 5 cycles each) (fold (ratio)); higher = stronger signal-on switching upon ATP binding; sequences stand for … in TCGTCGGCAGCGTCAGATGTGTATAAGAGACAGTTTTTTTTTTTTTTTTTTTTTTTTT…TC
Conditions: aptamer strand: ATP DNA aptamer (quencher-CACCTGGGGGAGTATTGCGGAGGAAGG + anchor), 100 nM annealed; ATP concentration: 500 uM; one replicate
How it was run: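 The fluorescence ratio divides summed target-cycle Cy3 intensity by summed buffer-cycle Cy3 intensity for each cluster and is averaged per switch-domain sequence. Cy3-labelled switching-strand clusters on a modified Illumina MiSeq flow-cell were annealed to 100 nM quencher-labelled ATP aptamer, then imaged in selection buffer and again after 15 min with 500 uM ATP at 22 °C. Five such cycles were run, with NaOH stripping and re-annealing between them, and clusters outside 100-1000 RFU were excluded.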
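Further: ATP exposure 15 min at 22 °C before imaging.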

Sequence | switch fluorescence ratio
AGTCAGTTCT | 0.972
AGTCATTAGC | 1.02
AGTCCAGATT | 0.985
AGTCCATACT | 1.03
AGTCCCGCTC | 1.24
AGTCCCTTTG | 1.08
AGTCCGATAG | 1.07
AGTCCGCGGG | 1.26
AGTCCGCGTT | 1.82
AGTCCTACGT | 1.11
AGTCCTATTC | 1.04
AGTCCTGCCT | 1.06
AGTCCTTTCT | 1.06
AGTCGACCGG | 1.06
AGTCGAGCTG | 1.01
AGTCGAGTG | 1.01
AGTCGATCTG | 1
AGTCGGGCTA | 0.979
AGTCGGTCTG | 0.953
AGTCGTGAAA | 1.02
AGTCGTTAGA | 1.04
AGTCTACACT | 1.05
AGTCTACGTC | 1.04
AGTCTCGGGC | 0.962
AGTCTCTATT | 1

Sequence | switch fluorescence ratio
AGTCTGTTTG | 0.964
AGTCTTCGC | 0.91
AGTCTTGGTT | 1.01
AGTGAAGTTG | 0.997
AGTGACAAGG | 1.02
AGTGAGCGCC | 0.98
AGTGAGGCCC | 1.04
AGTGATAAGG | 1
AGTGATACGA | 1.32
AGTGCATTAG | 1.04
AGTGCCCCGT | 1.02
AGTGCCTTT | 0.996
AGTGCGAACA | 0.976
AGTGCTAGGT | 0.999
AGTGCTCTGA | 0.944
AGTGCTGGCC | 0.966
AGTGCTTCAT | 0.975
AGTGGAATAA | 1.02
AGTGGATAA | 0.998
AGTGGCTTTC | 1.01
AGTGGGGGAC | 0.985
AGTGGGGTAG | 0.973
AGTGGGTGTA | 1.01
AGTGTACATT | 0.974
AGTGTACCCC | 1.22

Sequence | switch fluorescence ratio
AGTGTGATAA | 1.01
AGTGTGGCCG | 1.02
AGTGTTCAGC | 1.02
AGTGTTCGAG | 0.985
AGTGTTGTAC | 1.05
AGTTAAGAGG | 0.993
AGTTAAGTTT | 0.946
AGTTAATGGG | 0.993
AGTTACTATG | 1.06
AGTTATGGAT | 0.99
AGTTATGGTA | 1.06
AGTTCAGCTT | 0.998
AGTTCCAGA | 0.951
AGTTCGATAA | 1
AGTTCGATC | 0.948
AGTTCGCGAG | 1.05
AGTTCGTTGC | 0.982
AGTTCTCTC | 1.02
AGTTCTCTGC | 1.01
AGTTCTTGAG | 0.965
AGTTGACGAG | 1.03
AGTTGATCA | 1.06
AGTTGATGGA | 0.977
AGTTGCCTGG | 1.01
AGTTGGGACG | 0.94

Sequence | switch fluorescence ratio
AGTTGGGCGT | 0.972
AGTTGTAACC | 1.01
AGTTGTGAAT | 0.957
AGTTGTTCTC | 0.989
AGTTTAGGAG | 1
AGTTTCTTCG | 1.02
AGTTTGCCCC | 0.961
AGTTTGCTGA | 0.998
AGTTTGTCGA | 0.98
AGTTTTACCA | 0.997
AGTTTTAGGG | 1
AGTTTTATAA | 1.03
AGTTTTG | 0.976
ATAAAAAGA | 0.967
ATAAAAATCT | 1
ATAAAAGATC | 0.993
ATAAAATTTG | 1.01
ATAAACTC | 1.03
ATAAAGTATT | 1.01
ATAAAGTCGA | 0.949
ATAAATATTT | 0.957
ATAAATGACA | 0.982
ATAAATTCTC | 0.99
ATAAATTTGA | 0.995
ATAACAAAGG | 1.03

Sequence | switch fluorescence ratio
ATAACAGGGA | 0.977
ATAACCGAGG | 0.992
ATAACCTATG | 0.991
ATAACGAGCG | 1.03
ATAACGCTGA | 1.02
ATAACTAGAG | 1.06
ATAACTTAAT | 1.01
ATAAGATCAC | 1.06
ATAAGATCAT | 1
ATAAGATCCG | 1
ATAAGCACC | 1.33
ATAAGCAGGT | 1.12
ATAAGCTTTA | 0.97
ATAAGGAATA | 1.03
ATAAGGGCCG | 0.934
ATAAGGGGGG | 0.996
ATAATCAGCT | 1.06
ATAATGTTAT | 1.02
ATAATTGCTT | 0.976
ATACAGAACG | 1.25
ATACAGGGAC | 1.01
ATACATGAG | 1.02
ATACCAAACA | 1.29
ATACCATGTA | 1.04
ATACCCACCA | 1.42

Sequence | switch fluorescence ratio
ATACCCACGA | 1.25
ATACCGACTG | 1.12
ATACCTAGTC | 0.987
ATACGCAGGA | 0.987
ATACGGTCGG | 1
ATACGTAACG | 1.12
ATACTCGTTG | 1.01
ATACTGAGC | 1.03
ATACTGATGA | 1.04
ATACTTGAAG | 1.03
ATAGAAACTT | 1.09
ATAGAAGATA | 0.992
ATAGACGACT | 1.05
ATAGACGCGC | 0.987
ATAGACTACA | 1.07
ATAGAGAGGC | 0.909
ATAGAGCCGC | 0.957
ATAGAGCGCC | 0.977
ATAGAGGGAG | 1.01
ATAGCAACAG | 1.17
ATAGCATGTG | 0.995
ATAGCGAAGC | 0.969
ATAGCGCACT | 1.13
ATAGCGTGTG | 1.03
ATAGCTCGGG | 0.982

Sequence | switch fluorescence ratio
ATAGCTTAGT | 0.983
ATAGGAAGAC | 1.18
ATAGGATTGA | 1
ATAGGCCATG | 0.985
ATAGGCCTTT | 0.986
ATAGGCGGTA | 1.01
ATAGGCGTAG | 1.03
ATAGGGGCCG | 1.07
ATAGGGGGCC | 1.04
ATAGGGTTTT | 0.989
ATAGGTACTC | 1.02
ATAGGTCACG | 1.02
ATAGGTGGCC | 0.979
ATAGGTTGAG | 0.98
ATAGTACCT | 1.21
ATAGTATCAT | 0.955
ATAGTCAGTG | 0.969
ATAGTCGTG | 0.989
ATAGTCTAGC | 0.967
ATAGTCTAGG | 0.941
ATAGTGAACT | 1.01
ATAGTGCCTA | 1.01
ATAGTGTGGG | 1.03
ATAGTTGAAC | 1.02
ATAGTTGGTA | 0.989

Sequence | switch fluorescence ratio
ATATAACGGG | 1.03
ATATAATAAG | 1.02
ATATACCATA | 1.06
ATATACGTAC | 1.63
ATATAGTGTC | 1.1
ATATATTATC | 0.975
ATATATTCAT | 0.981
ATATCAGATA | 0.994
ATATCCCGGG | 1.04
ATATCCTCTC | 1.04
ATATCCTTGC | 1.64
ATATCGCAGC | 1.18
ATATCGGAGC | 0.961
ATATCGTATA | 1.03
ATATCGTGCC | 0.944
ATATCGTTAA | 0.976
ATATCTATGC | 1.03
ATATCTGCAC | 1.14
ATATCTTAGG | 0.983
ATATCTTTGC | 0.965
ATATGACGTT | 0.993
ATATGAGGTC | 0.934
ATATGATCCC | 0.959
ATATGCCCAG | 0.975
ATATGGAGAG | 1.03
